Assay results from paper PMC10962199.
Residue numbers refer to the chain shown, from its start. No constants are given. Whether binding was seen depends on the method and setting. In cells and extracts the contact can be indirect. Some results given as binding are weak or reduced against the parent protein; the word gives no strength. Sequences can lack the tags named with a protein. Each block holds one binder with its values, some of them ahead of it.

Legend:
[1] = target: T1, Cdc20^Slp1 (Slp1-HA) (S. pombe) (UniProt P78972); experiment: co-IP; mitotically arrested nda3-KM311 cells (HU pre-synchronised, 6 h at 18 °C), native extracts; which partner was precipitated is not stated for these panels (Fig. 3A, 3C, 3F); untagged strains as negative controls
T1 sequence: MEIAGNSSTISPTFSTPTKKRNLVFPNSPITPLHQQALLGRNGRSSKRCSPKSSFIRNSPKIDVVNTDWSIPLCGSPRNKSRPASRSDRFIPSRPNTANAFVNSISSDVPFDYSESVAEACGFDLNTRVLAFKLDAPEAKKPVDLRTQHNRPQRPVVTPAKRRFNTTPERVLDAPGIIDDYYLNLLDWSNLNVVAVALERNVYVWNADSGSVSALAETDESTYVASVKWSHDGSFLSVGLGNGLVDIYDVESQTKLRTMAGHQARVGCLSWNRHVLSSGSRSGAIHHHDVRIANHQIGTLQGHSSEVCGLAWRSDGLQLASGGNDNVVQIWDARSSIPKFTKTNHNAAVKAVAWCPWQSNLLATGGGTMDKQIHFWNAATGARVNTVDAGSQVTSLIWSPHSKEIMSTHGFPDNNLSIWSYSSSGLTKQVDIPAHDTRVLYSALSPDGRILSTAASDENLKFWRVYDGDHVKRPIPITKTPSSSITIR

[2] = target: T2, Cdc20^Slp1-DS (Slp1-DS-HA), MAPK docking site mutant (S. pombe) (UniProt P78972); experiment: as above
T2 sequence: T1 sequence with K19A, K20A, R21A, L23A, V24A

[3] = target: T1, Cdc20^Slp1 (Slp1-HA) (S. pombe); experiment: co-IP; Slp1-HA immunoprecipitated with anti-HA from native S. pombe extracts, partner detected by immunoblot; washes with 50 mM Tris-HCl pH 7.5, 500 mM NaCl, 0.1% Nonidet P-40; cells from a mitotic block (wild type, pmk1Δ or pek1Δ background) or asynchronous cells treated with 0.6 M KCl for 0, 5, 15 and 30 min
[4] = target: T3, MAPK Pmk1 (Pmk1-GFP) (S. pombe) (UniProt Q92398); experiment: co-IP; mitotically arrested nda3-KM311 cells (HU pre-synchronised, 6 h at 18 °C), native extracts; which partner was precipitated is not stated for these panels (Fig. 3A, 3C, 3F); untagged strains as negative controls
T3 sequence: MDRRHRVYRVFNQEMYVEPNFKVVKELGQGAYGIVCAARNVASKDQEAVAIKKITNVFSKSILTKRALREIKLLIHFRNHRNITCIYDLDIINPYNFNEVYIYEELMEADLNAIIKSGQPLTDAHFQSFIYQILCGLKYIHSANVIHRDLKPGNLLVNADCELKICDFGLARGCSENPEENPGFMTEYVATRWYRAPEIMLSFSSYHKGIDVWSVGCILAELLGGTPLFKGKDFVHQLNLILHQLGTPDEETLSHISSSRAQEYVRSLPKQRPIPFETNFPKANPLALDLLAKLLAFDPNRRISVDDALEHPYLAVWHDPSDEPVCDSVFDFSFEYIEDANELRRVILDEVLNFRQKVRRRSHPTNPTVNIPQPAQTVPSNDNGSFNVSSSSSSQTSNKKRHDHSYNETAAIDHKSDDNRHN

[5] = target: T4, APC/C component Apc4 (Apc4-TAP) (S. pombe) (UniProt O42839); experiment: co-IP; Apc4-TAP immunoprecipitated from control and pmk1Δ cells, nda3-KM311 background after 6 h of mitotic arrest; immunoblot for Mad3-GFP
T4 sequence: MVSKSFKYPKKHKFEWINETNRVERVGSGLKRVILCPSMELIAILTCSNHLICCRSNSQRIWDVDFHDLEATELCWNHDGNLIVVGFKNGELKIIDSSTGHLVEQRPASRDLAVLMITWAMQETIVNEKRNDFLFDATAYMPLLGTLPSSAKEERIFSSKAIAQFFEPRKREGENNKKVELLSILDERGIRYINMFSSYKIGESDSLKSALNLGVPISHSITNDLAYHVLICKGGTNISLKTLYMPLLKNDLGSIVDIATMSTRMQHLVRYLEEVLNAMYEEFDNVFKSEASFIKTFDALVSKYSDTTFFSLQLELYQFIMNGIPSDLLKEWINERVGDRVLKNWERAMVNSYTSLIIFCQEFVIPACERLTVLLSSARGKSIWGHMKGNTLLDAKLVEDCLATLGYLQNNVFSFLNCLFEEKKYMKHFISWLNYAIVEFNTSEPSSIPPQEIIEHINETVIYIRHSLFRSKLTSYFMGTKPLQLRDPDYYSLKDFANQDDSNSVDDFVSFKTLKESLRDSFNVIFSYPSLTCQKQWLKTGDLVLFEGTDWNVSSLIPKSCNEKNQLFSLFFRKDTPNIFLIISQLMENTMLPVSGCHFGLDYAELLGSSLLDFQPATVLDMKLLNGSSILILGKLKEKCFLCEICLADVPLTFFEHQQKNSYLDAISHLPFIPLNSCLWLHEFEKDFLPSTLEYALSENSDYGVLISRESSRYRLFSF

B2: MAPK Pmk1 (Pmk1-GFP) (enzyme, UniProt Q92398 1-422)
chain: T3 sequence
binding [3]: binds

B3: Cdc20^Slp1 (Slp1-HA) (protein, UniProt P78972 1-488)
chain: T1 sequence
binding [4]: binds

B4: Cdc20^Slp1-DS (Slp1-DS-HA), MAPK docking site mutant (protein, UniProt P78972 1-488)
chain: T1 sequence with K19A, K20A, R21A, L23A, V24A
binding [4]: no binding

The remaining lines, values ahead:

binding [1]: binds
binding [2]: binds
B1: Mad2 (protein, UniProt O14417 1-203)
chain: MSSVPIRTNFSLKGSSKLVSEFFEYAVNSILFQRGIYPAEDFKVVRKYGLNMLVSVDEEVKTYIRKIVSQLHKWMFAKKIQKLILVITSKCSGEDLERWQFNVEMVDTADQFQNIGNKEDELRVQKEIQALIRQITATVTFLPQLEEQCTFNVLVYADKDSEVPTDWVDSDPRILRDAEQVQLRSFSTSMHKIDCQVAYRVNP

binding [1]: binds
binding [2]: binds
binding [3]: binds
binding [5]: binds
B5: Mad3 (Mad3-GFP) (protein, UniProt O59767 1-310)
chain: MEPLDAGKNWVHMDVIEQSKENIEPRKAGHSASALAKSSSRNHTEKEVAGLQKERMGHERKIETSESLDDPLQVWIDYIKWTLDNFPQGETKTSGLVTLLERCTREFVRNPLYKDDVRYLRIWMQYVNYIDEPVELFSFLAHHHIGQESSIFYEEYANYFESRGLFQKADEVYQKGKRMKAKPFLRFQQKYQQFTHRWLEFAPQSFSSNTNSVNPLQTTFESTNIQEISQSRTKISKPKFKFSVYSDADGSGKDGQPGTWQTLGTVDQRRKENNISATSWVGEKLPLKSPRKLDPLGKFQVHCDEEVSKE
